Consider 112 variants from the RNAGym collection of RNA variant scans (doi:10.7554/elife.90254).

Read counts are not given, so values of variants with three or more changes are uncertain.

The labels stand for the following.
B1: LINE1-mini (parent)
chain: GGCAGAGCUCAACACAGCGUGGCAAAGUGGCUGUGGCUAGACUGCC

The variants in this data set derive from B1. Kind of data set: self-cleavage, relative activity (ratio to wild type); higher = more cleavage; in vitro, sequencing; the parent is a self-cleaving ribozyme.
Regarding GGAAGAGGUCAACACAGCGUGACAAAGUGGCUGUGGCAAGACUGCC, the self-cleavage is 0.01. As for GGAAGAGCUUAACACAGCGUGGCAAAGUGGCUGUGGCAAGACUGCC, the figure is 0.09. The value for GGAUUAGCUCAACACAGCUUGGCAAAGUGGCAGUGGCUAAACUGCC was 0.01. As for GGAAGAGACCAACACAGCGUGGCAAAGUGGCUGUGGCUAGACUGCC, the figure is 0.15. For the variant GGAAGAGCUCAACACAGCGUGGCAGAGUGGCUGUGGCUAGAGUGCC, the self-cleavage is 0.02. As for GGAAGAGGUCAACACAGCGUGCCAGAGUGGCUGUGGCAAGACUGCC, the figure is 0.02; as for GGAAGAGCUCAGCUUAGCUUAGCAAAGUGGCUGUGGCUAGACUGCC, 0.03.

For the variant GGAAGAGCUCUACACAGCGUGGCAAAGUGGCUGUGGCUCGACUGCC, the self-cleavage stood at 0.02. Turning to GGAAGAGAUGAACACAGCGUGGCAAAGUGGCUGUGGCUAGACUGCC, the self-cleavage is 0.01. As for GGAAGAGCUCAACGCAGCCUGGCAAAGUGGCUGAGGCUAGACUGCC, the figure is 0.12; as for GGAAGAGCUCAAAUCAGCGUGGUAAAGUGGCUGUGGCUAGACUGCC, 0.45; as for GGAAGAGCUCAUCACAGUGUGGCAAAGUGGCUGUGGCUAGACUGCC, 0.61.

With GGAAGAGCUCACCUCAGCGUGGCAAAGUCGCUGUGGCUAGACUGCC, the self-cleavage came to 0.03.

Turning to GGAAGAGCUCAACACAGCGUGGCGAAGUGGCUGUGGCUAGACGGCC, the self-cleavage worked out at 1.88. For GGAAGAGGUCAAAACAGCGUGGCAAAGUGGCUGUGGCUACACUGCC, the self-cleavage came to 0.02. As for GGAAGAGCUCUACACAGCGUGGCAAAGUGGUUGGGGCUAGACUGCC, the figure is 0; as for GGAAGAGCUAAACUCAGCGUGGCAAAGUGGCUGUGGCUAGACUGCC, 0.06; as for GGAAGAGCUUAACAAAGCGUGGUAAAGUGGCUGUGGCUGGACUGCC, 0.06. As for GGAAGUGCUCAACACAGCGUGGCAAAGUUGCUGUGUCUAGACUGCC, the figure is 0.4; as for GGAAGAGCUCAUCACAGCGUGGCGUAGUGGCUGUGGCUAGACUGCC, 0.32; as for GGAAGCGAUCAACACAGCGUAGGAAAGCGGCUGUGGCUAGACUGGC, 0.26. The value for GGAAGAGAUCAACACAGCGUGGCAAAGUGGCUGAGGCUAGACUGCC was 0.35. In the case of GGAAGAGCUCUACACAAGGUGGCAAAGUGGCUUAGGCUAGACUGCC, the self-cleavage worked out at 0.05. The value for GGAAGUGCACAACACAGCGUGGCAAAGUGGCUGUGGCUAGACUGCC was 0.93. As for GGAAGAGGACAACACAGCGUGGCUAAGUGGCUGUGGCGAGACUUCC, the figure is 0.13; as for GGAAGAGCUCAACACAGCGUGGCAAGAUGGCUGUGGCUAGACUGCC, 0.32; as for GGAAGGCCUCAACACAGCGUGGCAAAGUGGCUGUGGCUAGACUGCC, 0.07. As for GGAUGAGCUCAACACAGCAUAGCAAACUGGCUGUGGCUAGACAGCC, the figure is 0.21. With GGAAGAGCUCCACAAGGCGUGGCAUUGUGGCUGUGGCUAGACUGCC, the self-cleavage was determined as 0.06.

With GGAAGAGCUCAACACAGCGUGGCAACGUGGCUAUGGCUAGAUUGCC, the self-cleavage came to 0.3.

Regarding GGAAGAGCUCAACACAGCGUGGCAAAGUGGCUGUGGCUGUACUGCC, the self-cleavage is 0.86. As for GGAAGCGCUCAACAAAGCGUGGCAAAGUGACUGUUGCUAGACUGCC, the figure is 0.07; as for GGAAGAGAUCAACACAGCGAGGCAAAGUGGCUGUGGCUAGACUACC, 0.21; as for GGAAGAGGUCAACACAGCGAGGCAAAGUGGCUGCGGCUAGACUGCC, 0.08. The value for GGAUGAGCUCAACACAGCGUGGCAAAGUGGCUGUGGCUAGACUUCC was 0.44. With GGAAGAGCUCUACGCAGCGUGGCAAAGUGGCUGUGGCUAGACUGCC, the self-cleavage was 0.05. The value for GGAAGAGCUUAACACAGCGUGGUAAAGUGGCUGAGGCUAGACUGCC was 0.12; that for GGAUGAGCUCAACAGAGCGUGGCAAAGUGGAUGUGCAUAGACUGCC was 0.02; that for GGAAGAGUUCAACACAGCGUGGCAACGUUGCUGUUGCUAGACUACC was 0.2. As for GGAAGAGCUCAACACAGCGUGGCUAAGUGGCUGUGGCUAGACGGCC, the figure is 0.07; as for GGAAGAGCUGAACGCAGCGUGGCAAAAUGGCUGUGGCUAGACUGCC, 0.05; as for GGAAGCGCUCAGCACAGCGUGGUAAAGUGGCUGUGGCUAGACUGCC, 0.11.

Take GGAAGAGCUCAAAACAGUGUGGCAAAGUGGUUGUGGCUAGACUCCC: the self-cleavage came out at 0.07. For GGAAGAGCUCAACGCAGCGUGGCAAAGUGGCGGUCCGUAGACUGCC, the self-cleavage is 0.02. As to GGAAGAGCUGCACACAGCGUGGCAAAGUGGCUGUGGCUAGAGUGCC, the self-cleavage stood at 0.01. Consider GGAAGAGCUCCAAACAGCGUGGCAAAGUGGCUGUGGCUAGAGUGCC, for which the self-cleavage was 0.03. As for GGAUGAGCUCAACACAGCGUUGAAAAGUGGCGGUGGGUAGACUGCC, the figure is 0.08; as for GGAAGAGCUCAACACCGCGUGGCCAAGUGGCUGUGGCUAGACUGCC, 0.14. The value for GGAAGAGCUCACCACAGCUUGGCAAAGUCGCUGUGGCUAGACUGCC was 0.05; that for GGAAGAGCUCAAAACAGCGUGACAAAGUGGCUGUGGUUGGACUGCC was 0.04; that for GGAAGAGCUCAACCCAGCGUGGCAAAGUAGCUGUGGCUAGACUUCC was 0.14. The value for GGAAGGGCUCAACACAGCGUGGCAAAGUGGCUGUGGCUAGACUACC was 0.07; that for GGAAGUUCUCAACACAGCGUGGCAGAGUAGCUGUGGCUAGACUGCC was 0.03. Consider GGAAGAGCUUAACACAGCGAGGCAAAGUGGCUGUGGCUAGACUGCA, for which the self-cleavage came out at 0.03. The value for GGAAGAGCUCAACCCAGCCUGGCAAACUGGCUGUGGCUAUACUGCC was 0.03; that for GGAAGAGCUCAACACGGCGUGGCAAAGUGGCUGUGGCUAGACUUCC was 0.16; that for GGAAGAGCUCAACACGGCGUGGCAAAGUGGCUGUGGCUAGACUACC was 0.42. GGAAGAGUUCAACACAGCGUGGCCAAGUGGCUGUGGCUAGACUGAC: the self-cleavage was found to be 0.11. The value for GGAAGGGCUCAACACUGCGUGGCAAAGUAUCUGUGGCUAGACUGCC was 0.01. The value for GGAAGUGCUCAACACAGCGUGGCACAGUGGCUGUGGCUAGACUGCC was 0.14. With GGAAGAGCUCAACACAGCGUGGCAUAGGGGCUGUGGCUAGACUGCC, the self-cleavage is 0.19. As for GGAAGAGCUCAACACAGCGUGGCUAAGUGGCGGUGGCUAGACUGCC, the figure is 0.13; as for GGAAGAGCUCAACACAGCGUGGCAACGUGGCUGUGACUAGACUGCC, 0.49; as for GGAAGAGCUCACCACAGCGUGGCAAAGUCGGUGUGGCUAAAUUGCC, 0.01.

Take GGAAGAGAUCUACAGAGCGUGGCAAAGUGGCUGAGGCUAGACUGGC: the self-cleavage worked out at 0.01. The value for GGAAGCGCUCAACACGGCGCGGCAAAGUGGCUGUGGCAAGACUGCC was 0.06. As for GGAAGAGGUCACCAAAGCGUGGCAAAGUGGCUGUGGCUAGACUGCC, the figure is 0.03.

With GGAAGAGCUAAACCCAGAGUGGCAAAGUGGCUGUGGCUAGACUGCC, the self-cleavage amounted to 1.68.

For the variant GGAAGAGCUCAACACGGCGUGCCAAAGUGGCUGUGGCUAGACUGCC, the self-cleavage is 0.03.

As to GGAAGAGAUCAACACAGCGUGGCAAAGGGGCUGUGGCUAGACUGCC, the self-cleavage is 1.06. With GGAAGUGCUCAACACAGCGUGGCUAAUUGGCUGUGGCUAGACUGCC, the self-cleavage is 0.98. The value for GGAAGUCCUCAACACAGCGUGGCAAAGUAGCUGUGGCUAGACUGCC was 0.02. As for GGAAGAGCUAAACACAGCGUGGCAAAGUGGAUGUGGCUAGACUGCC, the self-cleavage stood at 0.03. For the variant GGAAGAGCUAAAUACAGCGUGUCAAAGUGGCAGUGGAUAGACUGCC, the self-cleavage was found to be 0.08. As for GGAAGAGCUGAACGCAGGGUGACAAAGUGGCUGUGGCUAGACUGCC, the figure is 0.02; as for GGAAGAGAUCAACACGGCGGGGCAAAGUGGCUGUGGCUAGACUGCC, 0.33. As for GGAAGGGCUCAACACAGCGUGGCGAAGUGGCUGUGGCUAGACUGCC, the figure is 0.42. The value for GGAAGAGUUCAACACAGUGUGGCAAAGUGGCUGUGACUAUACUCCC was 0.21. For GGAAGCCCUCAACACAGCGUGGCAAAGUGGCGGUGGCUAGACUGCC, the self-cleavage is 0.07. The value for GGAAGAGUUCAACACAGCGUGGCAAAGUGGCUGUGGCUAUACUGUC was 0.37. As for GGAAGGGCUCAUCAUUGCGUGGCAAAGUGGAUGUGGCUAGACUGCC, the figure is 0.04; as for GGAAGGGCUCAACACAGCGUUGCAAGGUGGCUGUGGCUAGACUGCC, 0.33. The value for GGAAGAGCUCAACACGGCGUGGCAAAUGGGCUGUGGCUAGACUGCC was 0.11. Turning to GGAAGAGCUCAACACAGCGUGGCAAAGUGGCUGUGGCUAGGCUGCA, the self-cleavage amounted to 0.1.

Turning to GGAAGAGCUCAACACAGCGUGGCAAAGUGGCUGUGGCUAGGCUGCU, the self-cleavage worked out at 0.02. As for GGAAGAGCUCAAAACAGCGUGGCAAGGUGGUUGUGGCUAGACUACC, the figure is 0.55; as for GGAAGAGCUCAACACAGCGUGGCAACGUGGCUGUGGCUGGACUGCC, 0.33; as for GGAAGAGCUCAAAACAGCUUGGCAAAGUGGCUGCGGCUAGAUUGCC, 0.29. As for GGAAGAGCUCGACACAGCGUGGCAAAGUGGGUGUGGCUAGACUGCC, the figure is 0.02. Consider GGAAGAGCUCAACACAGCGUGGCUGAGUGGCUGUGCCUAGACUGCC, for which the self-cleavage is 0.09.

On to GGAAGAGCUCAGCACUGCGUGGCAAAAUGGCUGUGGCUAGACUGCC, for which the self-cleavage amounted to 0.62. On to GGAAGAGCUCAACACAGCGUGGCCAAGUGGCUGUGGCUAGACUGCA, for which the self-cleavage stood at 0.08. The value for GGAAGUGCUCAACAAAGCGUGGCAAAGUGGCAGUGGCUUGACUGCC was 0.06; that for GGAAGUGCUCAACACAGCGUGGCAAAGUGGCUGUGGCUAGAAAGCC was 1.52; that for GGAAGAGCUCAAACCAGCGUGGCAAAGUGGCUGUGGCUAGACUGCC was 0.04. As for GGAAGAGCUCAACACUGCGUGGCAAAGUUGCUGUGGCUAGGCUGCC, the figure is 0.18; as for GGAAGAGCUCAACCCAGCGUGGCAAAGUCGCUGUGGCUAGAUUGCC, 0.02; as for GGAAGAGCUUAAAACAGCGUGGCAAAGUGGCUGUGGCUAGACUGCC, 0.44. The value for GGAAGAGCUCAACGCAGCGUGGCAUAGUGGCUGUGGCUAGACUGCU was 0.12; that for GGAAGUGCUCAACACAGCGUGGCCAAGUGGCUGUGGCUAGACUGCC was 0.1. On to GGAAGAGAUCAACAUAGCGUGGCAAAGUGGAUGUGGCUAGACUGCC, for which the self-cleavage amounted to 0.74. The value for GGAAGUCUUCAACACAGCGUGACAAAGUCGCUGUGGCUAGACUGCC was 0.14.

Regarding GGAUGAACCCAACACAGCGUGGCAAAGUGGCUGUGGCUAGACUGCC, the self-cleavage came out at 0.01.

Regarding GGAAGAGCUCUACACAGCGUGGCCAAGUGGAUGUGGCUAGACUGCC, the self-cleavage was 0.03.

Consider GGAAGGGCUCAACACAGCGUGGCAAAGUGGGUGUGGCUAGACUGCC, for which the self-cleavage came to 0.02.

Take GGAAGAGCUAAACACAGCGUGGCAAAGUGGCAGUGGCUAAACUGCC: the self-cleavage is 0.04. The value for GGAAGAGAUCAACACAGCGUGGCAAAGUGGCUGUUGCUAGACUGCC was 0.29; that for GGAAGAGAUCAACACAGCCUGGCAAAGUGGCUGUGGCUAGACUGCC was 0.25. The value for GGAAGAGCUCAAAACAGCGUGGCUAAUUGGCUGUGGCUAGACUGCC was 0.14; that for GGAAGAGCUCAACACAGCGUGGCAACGGGGCUGUGGCUAGACUUCC was 1.05; that for GGAAGAGCUAAAAACAGCGUGGCAAAGUGGCUGUGGCUAGACUGCC was 0.04.

On to GGAAGAGUUCAAUACAGCGAGGUAAAGUGGCUGUGGCUAGACUGCC, for which the self-cleavage came out at 0.84.
